Variants at the background level are over-represented here. A value given as a limit tells only on which side of the number the result lay.

These results are taken from the RNAGym collection of RNA variant scans (doi:10.1073/pnas.2313332121).

The chains are these.
B1: TPR 5TU (parent)
chain: GGAUCUUCUCGAUCUAACAAAAAAGACAAAUCUGCCACAAAGCUUGAGAGCAUCUUCGGAUGCAGAGGCGGCAGCCUUCGGUGGCGCGAUAGCGCCAACGUUCUCAACUAUGACACGCAAAACGCGUGCUCCGUUGAAUGGAGUUUAUCAUG

Variants of B1 are the subject of the data set. The experiment in a line: polymerase ribozyme fitness, log enrichment relative to wild type (log ratio); higher = more active; in vitro selection for triplet polymerase activity. In a few lines: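 Only genotypes with ≥10 input reads and ≥1 read per output were kept after Illumina sequencing of input and output libraries. These libraries were PCR-built, transcribed mutants of each subunit of a heterodimeric triplet polymerase ribozyme, each put through one triplicate in vitro selection round with frozen incubation at −7 °C, gel excision of extended constructs, streptavidin-bead capture and RT-PCR. Fitness is a logarithmic ratio of genotype enrichment to wild-type enrichment, from inverse-variance-weighted replicate averages, with the logarithm in base 2.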
For GGAUCUUCUCGAUCUCACAAAAAAGACAAAUCUGCCACAAAGCUUGAGAGCAUCUUCGGAUGCAGAGGCGGCAGCCUUAGGUGGCGCGAUUGCGCCAACGUUCUCAACUAUGACAAGCAAAACGCGUGCUCCGUUGAAUGGAGUUUAUAAUG [A16C C79A A91U C116A C149A], the “polymerase ribozyme fitness (log ratio)” value is at most -4.2.

Take GGAUCUUCUCGAUCUCACAAAAAAGACAAAUCUGCCACAAAGCUUGAGAGCAUCUUCGCAUGCAGAGGCGGCAGCCUUCGGUGGCGCGAUAGCCCCAACGUUCUCAACUAUGACACGCAAAACGCAUGCUCCGUUGAAAGGAGUUUAUCAUG [A16C G59C G94C G126A U139A]: the “polymerase ribozyme fitness (log ratio)” value was at most -4.2. Regarding GGAUCUUCUCGAUCUCACAAAAAAGACAAAUCUGCCACAAAGCUUGAGAGCAUCUUCGGAUGCAGAGGCGGCAGCAUUCGGUAGCGCGAUUGCGCCAACGUUCUCCAAUAUGACACGCAAAACGCGUGCACCGUUGAAUGGAGUUUAUCAUG [A16C C76A G83A A91U A106C C108A U130A], the “polymerase ribozyme fitness (log ratio)” value is at most -4.2. To GGAUCUUCUCGAUCUCACAAAAAAGACAAAUCUGCCACAAAGCUUGAGAGCAUCUUCGGAUGCAGAGGCGGCAGCCUUCGAUGGCGCGAUAGCGCCAACGUUCUCAACUAUGACACGCAAAACGCGUGCUCCGUUGAAUGGAGUUUAUCAUG [A16C G81A] belongs -0.894; to GGAUCUUCUCGAUCUCACAAAAAAGACAAAUCUGCCACAAAGCUUGAGAGCAUCUUCGGAUGCAGAGGCGGGAGCCUUCGGUGGCGCGAUAGCGCCAAAGUUGUCAACUAUGACACCCAAAACGCGUGCUCCGUUGAAUGGAGUUUAUCAUG [A16C C72G C99A C103G G117C], at most -4.2. As to GGAUCUUCUCGAUCUCACAAAAAACACAAAUCUGCCACAAAACUUGAGAGCAUCUUCGGAUGCAGAGGCGGCAGCCUUCGGUGUCGCGAUAGCGCCAACGUUCUCAACUAUGACACGCAAAACGCGUGCUCCGUUGAAUGGAGUUUAUCAUG [A16C G25C G42A G84U], the “polymerase ribozyme fitness (log ratio)” value is at most -4.2. In the case of GGAUCUUCUCGAUCUCACAAAAAAGACAAAUCUGCCACAAAGCUUGAGAGCAUCUUCGGAUGCAGAGGCGGCAGCCUUCGGUGGCGGGAUAGCGCCAGCGUUCUCAACUAUGACACGCAAAACGCGUGCUCCGUUGAAUGGAGUUUAUAAUG [A16C C87G A98G C149A] it was at most -4.2. As for GGAUCUUCUCGAUCUCACAAAAAAGACAAAUCUGCCACAAAGCUUGAGAGCAUCUUCGGAUGCAGAGGCGGCAGCCUUCGGUGGCGUGAUAGCGCCAACGUUCUCAACUAUGACACGCAAAACGCGUGCUCCGUUGAAUGGAGUUUAUCAUG [A16C C87U], the “polymerase ribozyme fitness (log ratio)” value is -1.85. In the case of GGAUCUUCUCGAUCUCACAAAAAAGACAAAUCUGCCACAAAGCUUGAGAGCAUCUUCGGAUGCACAGGCGGCAGCCUUCGGUGGCGCGAUAGCGCCAACGUUCUCAACUAUGACACGCAAAACGCGUGCACCGUUGAAUUGAGUUUAUCAUG [A16C G65C U130A G140U] it was at most -4.2; in that of GGAUCUUCUCGAUCUCACAAAAAAGACAAAUCUGCCACAAAGCUUGAGAGCAUCUUCGGAUGCAGAUGCGGCAGCCUUCGGUGGCGCGAUAGCGCCAACGUUCUCAACAAUGACACGCAAAACGCGUGCUCCGUUGAAUGGAGUUUAUCAUG [A16C G67U U109A], at most -4.2; in that of GGAUCUUCUCGAUCUCACAAAAAAGACAAAUCUGCCACAAAGCUUGAGAACAUCUUCGGAUGCAGAGGCGGCAGCCUUCGGUGGCGCGAUAGCGCCAACGUUCUCAACUAUGACACGCAAAACGCGUGCUCCGUUGAACGGAGUUUAUCAUG [A16C G50A U139C], at most -4.2. To GGAUCUUCUCGAUCUCACAAAAAAGACAAAUCUGCCACAAACCUUGAGAGCAUCUUCGGAUGCAGAGGCGGCAGCCUUCGGUGGGGCGUUAGCGUCAACGUUCUCAACUAUGACACGCAAAACGCGUGCUCCGUUGAAUGGAUUUUAUCAUG [A16C G42C C85G A89U C95U G143U] belongs at most -4.2; to GGAUCUUCUCGAUCUCACAAAAAAGACAAAUCUGCCACAAAGCUUGAGAGCAUCUUCGGAUGCAAAGGCGCCAGCCUUCGGUGGCGCGAUAGCGCCAACGUUCUCAACUAUGACACGCAAAACGCGUGCUCCGUUGAAUGGAGUUUAGCAUG [A16C G65A G71C U148G], at most -4.2; to GGAUCUUCUCGAUCUCACAAAAAAGACAAAUCUGCCACAAAGCUUGAGAGCAUCUUCGGAUGCAGAGGCGGCAGCCUUAGGUGGCGCGAUAGCGCCAACGUUCUCAACUAUGACACGCAAAACGCGUGCUCCGUUGAAUGGAGUUUAUCAUG [A16C C79A], at most -4.2. In the case of GGAUCUUCUCGAUCUCACAAAAAAGACAAAUCUGCCACAAAGCUUGAGAUCAUCUUCGGAUGCAGAGGCGGCACCCUUCGGUGGCGCGAUAGCGUCAACGUUCUCAAUUAUGACACGCAAAACGCGUGCUCCGUUGAAUGGAGUUUAUCAUG [A16C G50U G74C C95U C108U] it was at most -4.2. Turning to GGAUCUUCUCGAUCUCACAAAAAAGACAAAUCUGCCACAAAGCUUAAGAGCAUCUUCGGAUGCACCGGCGGCAGCCUUCGGUGGUGCGAUAGCGCCAACGUUCACAAAUAUGACACGCAAAACGGGUGCUCCGUUGAAUGGAGUUUAUCAUG [A16C G46A G65C A66C C85U U104A C108A C125G], the “polymerase ribozyme fitness (log ratio)” value is at most -4.2. To GGAUCUUCUCGAUCUCACAAAAAAGACAAAUCUGCCACAAAGCUUAAGAGCAUCUUCGGAUGCAGAGGCGGCAGCCUUCGGUGACGCGACAGCGCCAACGUUCUCAACUAUGACACGCAAAGCGCGUGCUCCGUUGAAUGGAGUUUAUCAUG [A16C G46A G84A U90C A122G] belongs at most -4.2; to GGAUCUUCUCGAUCUCACAAAAAAGACAAAUCUGCCACAAAGCUUGAGAUCAUCUUCGGAUGCAGAGGCGGCAGCCUUCCGUGGCGCGAUAGCGCCAACGUUCUCAACUAUGACACGCAAAACGCGUGCUCCGUUAAAUGGAGUUUAUCAUG [A16C G50U G80C G136A], at most -4.2; to GGAUCUUCUCGAUCUCACAAAAAAGACAAAUCUGCCACAAAGCUUGAGAGCAUCUUCGAAUGCAGAGGCGGCAGCCUUCGGAGGCGCGAUAGCGCCAACGUUCUCAACUAUGACACGCAAAACGCGUGCUCCGUUGAAUGGAGUUUCUAAUG [A16C G59A U82A A147C C149A], at most -4.2.
